Paper PMC4336329 (PLoS ONE, 2015)
Out of some 310,000 compounds screened, about 14,000 (4.5%) showed an effect of 50% or more. The effect is printed as a negative number. Some of the results follow.

Biological target: human ether-à-go-go-related gene (hERG) potassium channel (human, UniProt Q12809)
Assay: primary screen, population patch clamp on CHO cells stably expressing hERG
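Further: peak tail current of the secondary pulse compared with the same well before compound.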

Chain of human ether-à-go-go-related gene (hERG) potassium channel (Q12809 whole entry, looked up): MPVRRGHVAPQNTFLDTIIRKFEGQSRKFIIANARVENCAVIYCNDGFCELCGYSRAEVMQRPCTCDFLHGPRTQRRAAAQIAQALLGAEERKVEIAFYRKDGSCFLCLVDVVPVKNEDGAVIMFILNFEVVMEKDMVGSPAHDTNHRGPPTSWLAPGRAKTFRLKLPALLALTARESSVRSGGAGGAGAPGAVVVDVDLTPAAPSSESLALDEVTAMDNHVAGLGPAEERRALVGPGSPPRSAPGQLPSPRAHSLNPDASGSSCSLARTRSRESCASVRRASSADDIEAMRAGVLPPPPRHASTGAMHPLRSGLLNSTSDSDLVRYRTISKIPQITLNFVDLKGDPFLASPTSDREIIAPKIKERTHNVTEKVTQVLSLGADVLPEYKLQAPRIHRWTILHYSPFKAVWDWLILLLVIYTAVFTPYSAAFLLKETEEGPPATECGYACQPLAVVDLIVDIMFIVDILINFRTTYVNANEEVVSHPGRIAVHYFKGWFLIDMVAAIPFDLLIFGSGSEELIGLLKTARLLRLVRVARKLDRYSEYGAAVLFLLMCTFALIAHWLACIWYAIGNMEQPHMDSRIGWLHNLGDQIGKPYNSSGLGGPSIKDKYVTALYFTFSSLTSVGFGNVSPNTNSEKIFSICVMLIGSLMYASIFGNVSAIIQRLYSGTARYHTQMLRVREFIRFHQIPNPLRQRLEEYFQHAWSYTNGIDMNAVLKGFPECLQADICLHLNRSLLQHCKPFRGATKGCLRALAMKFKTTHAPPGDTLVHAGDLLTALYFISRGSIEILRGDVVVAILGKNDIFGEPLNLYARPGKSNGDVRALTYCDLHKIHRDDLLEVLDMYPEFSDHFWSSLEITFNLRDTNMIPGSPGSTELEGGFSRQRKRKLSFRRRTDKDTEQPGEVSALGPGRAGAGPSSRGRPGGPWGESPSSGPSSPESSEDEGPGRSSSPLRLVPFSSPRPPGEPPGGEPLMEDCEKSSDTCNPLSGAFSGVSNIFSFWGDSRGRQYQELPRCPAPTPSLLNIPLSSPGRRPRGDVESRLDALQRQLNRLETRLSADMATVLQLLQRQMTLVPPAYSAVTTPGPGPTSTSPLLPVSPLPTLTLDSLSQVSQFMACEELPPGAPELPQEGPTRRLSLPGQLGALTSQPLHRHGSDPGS

Q: With `CCOc1ccc(-c2ccc(SCC(=O)N3CCOCC3)nn2)cc1` as the compound, how does the “hERG current change (%, negative = inhibition) at 10uM” value read?
A: -30.5%

Q: Which “hERG current change (%, negative = inhibition) at 10uM” value does the source give for `Cc1cc(=O)[nH]c(SCc2nc3ccccc3n2Cc2ccccc2)n1` here?
A: -5.55%

Q: `C=CCNC(=O)c1onc(CCl)c1C(=O)OC` was tested. Which “hERG current change (%, negative = inhibition) at 10uM” value did it give?
A: 11.8%

Q: For `CN1/C(=C\C=C\C2=[N+](C)c3ccc4ccccc4c3C2(C)C)C(C)(C)c2ccccc21.[O-][Cl+3]([O-])([O-])[O-]`, which “hERG current change (%, negative = inhibition) at 10uM” value is on record?
A: -75.7%

Q: For `CC1CN(C(=O)c2cc3cc([N+](=O)[O-])ccc3oc2=O)CC(C)O1` (stereo not shown), which “hERG current change (%, negative = inhibition) at 10uM” value is on record?
A: 5.39%

Q: For `N#Cc1ccc(-c2ccc(OCC(O)CN3CCCCC3)cc2)cc1` (stereo not shown), which “hERG current change (%, negative = inhibition) at 10uM” value is on record?
A: -80.7%

Q: `CCn1c(O)c(/C=C2\C=Nc3ccccc32)sc1=O` was tested. Which “hERG current change (%, negative = inhibition) at 10uM” value did it give?
A: 0.416%

Q: For `COC(=O)c1c(NC(=O)CSc2nc3nc(C)cc(C)n3n2)sc(C)c1C`, which “hERG current change (%, negative = inhibition) at 10uM” value is on record?
A: 4.35%

Q: With `CCOC(=O)c1ccccc1N=Cc1c(O)c2ccccc2oc1=O` as the compound, how does the “hERG current change (%, negative = inhibition) at 10uM” value read?
A: 20.4%

Q: For `COc1ccc(OC)c(-c2cc(C(=O)Nc3c(C)nn(Cc4ccccc4Cl)c3C)no2)c1`, which “hERG current change (%, negative = inhibition) at 10uM” value is on record?
A: 8.03%

Q: How did the “hERG current change (%, negative = inhibition) at 10uM” value turn out when `CC1(C)CC(=O)C2=C(C1)Nc1ncnn1C2c1ccccn1` (stereo not shown) was run?
A: 8.11%

Q: How did the “hERG current change (%, negative = inhibition) at 10uM” value turn out when `CCC1CCCCN1CCN1C(=O)C2C(C(=O)Nc3cccc(OC)c3)C3C=CC2(O3)C1C(=O)NC1CCCCC1` (stereo not shown) was run?
A: -16.7%

Q: How did the “hERG current change (%, negative = inhibition) at 10uM” value turn out when `CCC(c1nnc(SCC(=O)NNC(=O)c2ccccc2)n1Cc1ccccc1)N(C)C` (stereo not shown) was run?
A: 9.95%

Q: With `O=[N+]([O-])c1ccc(/C=N/NC(=S)Nc2ccccc2)o1` as the compound, how does the “hERG current change (%, negative = inhibition) at 10uM” value read?
A: -0.689%

Q: With `CS(=O)(=O)N(CC(=O)N1CCc2ccccc2C1)c1ccc(Cl)cc1F` as the compound, how does the “hERG current change (%, negative = inhibition) at 10uM” value read?
A: -3.5%

Q: How did the “hERG current change (%, negative = inhibition) at 10uM” value turn out when `O=C1c2ccccc2CC1Sc1nnc(-c2ccncc2)o1` (stereo not shown) was run?
A: -15.7%

Q: Which “hERG current change (%, negative = inhibition) at 10uM” value does the source give for `O=C1CCC(C(=O)Nc2cccc(C(F)(F)F)c2)N1` (stereo not shown) here?
A: 22.4%

Q: How did the “hERG current change (%, negative = inhibition) at 10uM” value turn out when `O=[N+]([O-])c1cccc(-c2ccc(/C=N/NC(=S)NCc3ccco3)o2)c1` was run?
A: 13.2%

Q: Which “hERG current change (%, negative = inhibition) at 10uM” value does the source give for `Cc1ccc(NC(=O)CSCC(=O)Nc2cc(Cl)ccc2N2CCOCC2)cc1` here?
A: -14.8%

Q: How did the “hERG current change (%, negative = inhibition) at 10uM” value turn out when `COc1ccc2c(-c3ccccc3)cc(SCC(=O)N(C)C3CCS(=O)(=O)C3)nc2c1` (stereo not shown) was run?
A: -39.7%

Q: `CCCCN1C(=O)N(c2ccc(Cl)cc2)C(C)(O)CC1(C)C` (stereo not shown) was tested. Which “hERG current change (%, negative = inhibition) at 10uM” value did it give?
A: 9.21%

Q: For `Cc1cccc(N2CCN(C(=O)c3cccc(N4C(=O)C5C6C=CC(C6)C5C4=O)c3)CC2C)c1` (stereo not shown), which “hERG current change (%, negative = inhibition) at 10uM” value is on record?
A: -0.155%

Q: `O=C(CCc1ccccc1)NNC(=O)c1ccc(NC(=O)c2ccccc2)cc1` was tested. Which “hERG current change (%, negative = inhibition) at 10uM” value did it give?
A: 2.53%

Q: With `O=C(CCn1c(=O)sc2ccccc21)NC1CCCCC1` as the compound, how does the “hERG current change (%, negative = inhibition) at 10uM” value read?
A: 3.46%

Q: How did the “hERG current change (%, negative = inhibition) at 10uM” value turn out when `CCCCCCNCC1OCc2ccccc2CO1` was run?
A: -25.4%

Q: For `COc1ccc(S(=O)(=O)NC2CCCCC2)cc1F`, which “hERG current change (%, negative = inhibition) at 10uM” value is on record?
A: -1.55%

Q: For `O=S(=O)(Nc1ccc2c(c1)nc1n2CCN(Cc2ccccc2)C1)c1ccc(Cl)cc1`, which “hERG current change (%, negative = inhibition) at 10uM” value is on record?
A: -2.38%

Q: How did the “hERG current change (%, negative = inhibition) at 10uM” value turn out when `Cc1ccc(CNC(=O)COc2ccc(C(=O)c3ccc(F)cc3)cc2)cc1` was run?
A: -12.9%

Q: `COc1ccc(CC(=O)Nc2ccc(-c3csc(C)n3)cc2)cc1` was tested. Which “hERG current change (%, negative = inhibition) at 10uM” value did it give?
A: 7.89%

Q: How did the “hERG current change (%, negative = inhibition) at 10uM” value turn out when `CCCS(=O)(=O)N1CCCC(C(=O)NC2CCCCC2)C1` (stereo not shown) was run?
A: 8.01%

Q: `Cc1nn2c(CN(C(=O)CN3CCOCC3)c3ccccc3)nnc2c2ccccc12` was tested. Which “hERG current change (%, negative = inhibition) at 10uM” value did it give?
A: -3.15%

Q: With `O=C(NCCCN1CCCC1=O)C1CCN(S(=O)(=O)c2cccc(Cl)c2Cl)CC1` as the compound, how does the “hERG current change (%, negative = inhibition) at 10uM” value read?
A: -18.7%

Q: With `C=CCn1c(N2CCCCCC2)nc2c1c(=O)n(C)c(=O)n2C` as the compound, how does the “hERG current change (%, negative = inhibition) at 10uM” value read?
A: -9.79%

Q: For `CC1C/C(=N/Nc2nc3ccccc3[nH]2)CC(C)(C)C1` (stereo not shown), which “hERG current change (%, negative = inhibition) at 10uM” value is on record?
A: -13.4%

Q: Which “hERG current change (%, negative = inhibition) at 10uM” value does the source give for `CNC[C@H](CC1CCCCC1)NC[C@H](CO)NCC1(c2ccccc2)CC1` here?
A: 27%

Q: With `CCCCn1c(N)c(-c2nc3ccccc3s2)c2c([N+](=O)[O-])nn(CC)c(=O)c21` as the compound, how does the “hERG current change (%, negative = inhibition) at 10uM” value read?
A: 14.3%

Q: Which “hERG current change (%, negative = inhibition) at 10uM” value does the source give for `Brc1ccc(-c2nnc3sc(CN4CCC5(CC4)OCCO5)cn23)cc1` here?
A: 6.54%

Q: How did the “hERG current change (%, negative = inhibition) at 10uM” value turn out when `COC(=O)[C@H](CC(C)C)NC(=O)Nc1cccc(Br)c1` was run?
A: 7.81%

Q: For `Cc1ccc(S(=O)(=O)Nc2c(Cl)c(Cl)c(O)c3ccccc23)cc1`, which “hERG current change (%, negative = inhibition) at 10uM” value is on record?
A: 10.1%

Q: For `O=C1OC(N2C(=O)CC[C@H]2C(=O)Nc2ccc(Br)cc2F)c2ccccc21` (stereo partly shown), which “hERG current change (%, negative = inhibition) at 10uM” value is on record?
A: 3.87%

Q: `COC(=O)c1ccc(/C=C2/SC(=S)N(CCC(=O)N3CCOCC3)C2=O)cc1` was tested. Which “hERG current change (%, negative = inhibition) at 10uM” value did it give?
A: 15.8%

Q: `COCCOC(=O)c1c(NC(=O)CN2CCCc3ccccc32)sc(C(N)=O)c1C` was tested. Which “hERG current change (%, negative = inhibition) at 10uM” value did it give?
A: -0.899%

Q: For `Cc1ccc(S(=O)(=O)NCc2c(-c3ccccc3)c3cc(Cl)ccc3[nH]c2=O)cc1`, which “hERG current change (%, negative = inhibition) at 10uM” value is on record?
A: 7.18%

Q: For `COc1ccc(NC(=O)CC2C(=O)N(c3ccc(F)cc3)C(=S)N2NC(=O)c2ccccc2)cc1` (stereo not shown), which “hERG current change (%, negative = inhibition) at 10uM” value is on record?
A: 3.61%

Q: `CC(C)N(Cc1ccccc1)C(=O)CN1C(=O)NC2(CCCCCC2)C1=O` was tested. Which “hERG current change (%, negative = inhibition) at 10uM” value did it give?
A: -6.36%

Q: With `O=C(NC(Cc1c[nH]c2ccccc12)c1nnc2n1CCCCC2)c1ccccc1Cl` (stereo not shown) as the compound, how does the “hERG current change (%, negative = inhibition) at 10uM” value read?
A: 4.83%

Q: For `O=C(CCc1nc2ccccc2c(=O)[nH]1)NCc1ccccn1`, which “hERG current change (%, negative = inhibition) at 10uM” value is on record?
A: 24.4%

Q: For `O=C(C1CCCCC1)N1CCN(c2nc(-c3ccc(F)cc3)cs2)CC1`, which “hERG current change (%, negative = inhibition) at 10uM” value is on record?
A: 15.1%

Q: Which “hERG current change (%, negative = inhibition) at 10uM” value does the source give for `CCOCCCNC(=O)Cn1cnc2c(cnn2-c2ccc(C)c(C)c2)c1=O` here?
A: 3.91%

Q: For `CCC(C)(C)n1nnnc1C(c1ccccc1)N1CCN(Cc2ccccc2)CC1` (stereo not shown), which “hERG current change (%, negative = inhibition) at 10uM” value is on record?
A: -32%

Q: For `CN1CCc2c(sc(/N=C/c3cccs3)c2C(N)=O)C1`, which “hERG current change (%, negative = inhibition) at 10uM” value is on record?
A: -33.4%

Q: For `CCOC(=O)c1ccc(NC(=S)NN2CCN(C)CC2)cc1`, which “hERG current change (%, negative = inhibition) at 10uM” value is on record?
A: -3.95%

Q: For `COc1cc(/C=N/NC(=O)c2cn(-c3cccc(C)n3)cn2)ccc1O`, which “hERG current change (%, negative = inhibition) at 10uM” value is on record?
A: 4.41%

Q: How did the “hERG current change (%, negative = inhibition) at 10uM” value turn out when `CCN1CCCC1CNC(=O)C(=O)NC(C)C` (stereo not shown) was run?
A: 12.1%

Q: For `Cc1ccnc2nc(C(=O)Nc3nccs3)nn12`, which “hERG current change (%, negative = inhibition) at 10uM” value is on record?
A: 11.5%
